{
  "source": "the supplement of paper PMC8728848",
  "test_in_all_cases": "glycan array binding signal (z-score within array); higher = stronger binding",
  "conditions_in_all_cases": "glycan notation: IUPAC condensed, linker removed",
  "key": {"Gal(a1-3)GalNAc": {"target": "Gal(a1-3)GalNAc", "method_in_brief": "(§1)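 Glycan array data were curated from 3228 arrays in the Consortium for Functional Glycomics database and kept only where the protein sequence was available. Glycan names were converted to IUPAC-condensed notation, and columns mapping to the same glycan were averaged. The binding signal is a within-array Z-score, averaged across arrays of the same protein sequence at different concentrations or buffers and across linkers. Negative Z-scores can be read as non-binding.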"}, "[1]": {"target": "Gal(a1-3)[Gal(a1-4)]Gal(b1-4)GlcNAc", "method_in_brief": "as §1"}, "[2]": {"target": "Gal(a1-4)Gal(b1-3)GlcNAc(b1-2)Man(a1-3)[Gal(a1-4)Gal(b1-3)GlcNAc(b1-2)Man(a1-6)]Man(b1-4)GlcNAc(b1-4)GlcNAc", "method_in_brief": "as §1"}, "Gal(a1-4)Gal(b1-4)Glc": {"target": "Gal(a1-4)Gal(b1-4)Glc", "method_in_brief": "as §1"}, "Gal(a1-4)Gal(b1-4)GlcNAc": {"target": "Gal(a1-4)Gal(b1-4)GlcNAc", "method_in_brief": "as §1"}, "[3]": {"target": "Gal(a1-4)Gal(b1-4)GlcNAc(b1-2)Man(a1-3)[Gal(a1-4)Gal(b1-4)GlcNAc(b1-2)Man(a1-6)]Man(b1-4)GlcNAc(b1-4)GlcNAc", "method_in_brief": "as §1"}, "[4]": {"target": "Gal(a1-4)Gal(b1-4)GlcNAc(b1-3)Gal(b1-4)Glc", "method_in_brief": "as §1"}, "Gal(a1-4)GlcNAc": {"target": "Gal(a1-4)GlcNAc", "method_in_brief": "as §1"}, "Gal(a1-6)Glc": {"target": "Gal(a1-6)Glc", "method_in_brief": "as §1"}, "Gal(b1-2)Gal": {"target": "Gal(b1-2)Gal", "method_in_brief": "as §1"}, "Gal(b1-3)Gal": {"target": "Gal(b1-3)Gal", "method_in_brief": "as §1"}, "Gal(b1-3)Gal(b1-4)GlcNAc": {"target": "Gal(b1-3)Gal(b1-4)GlcNAc", "method_in_brief": "as §1"}, "Gal(b1-3)GalNAc": {"target": "Gal(b1-3)GalNAc", "method_in_brief": "as §1"}, "[5]": {"target": "Gal(b1-3)GalNAc(a1-3)[Fuc(a1-2)]Gal(b1-4)Glc", "method_in_brief": "as §1"}, "[6]": {"target": "Gal(b1-3)GalNAc(a1-3)[Fuc(a1-2)]Gal(b1-4)GlcNAc", "method_in_brief": "as §1"}, "Gal(b1-3)GalNAc(b1-3)Gal": {"target": "Gal(b1-3)GalNAc(b1-3)Gal", "method_in_brief": "as §1"}, "[7]": {"target": "Gal(b1-3)GalNAc(b1-3)Gal(a1-4)Gal(b1-4)Glc", "method_in_brief": "as §1"}, "[8]": {"target": "Gal(b1-3)GalNAc(b1-4)Gal(b1-4)Glc", "method_in_brief": "as §1"}, "[9]": {"target": "Gal(b1-3)GalNAc(b1-4)[Neu5Ac(a2-3)]Gal(b1-4)Glc", "method_in_brief": "as §1"}, "Gal(b1-3)GlcNAc": {"target": "Gal(b1-3)GlcNAc", "method_in_brief": "as §1"}, "[10]": {"target": "Gal(b1-3)GlcNAc(a1-3)Gal(b1-4)GlcNAc", "method_in_brief": "as §1"}, "[11]": {"target": "Gal(b1-3)GlcNAc(a1-6)Gal(b1-4)GlcNAc", "method_in_brief": "as §1"}, "Gal(b1-3)GlcNAc(b1-2)Man": {"target": "Gal(b1-3)GlcNAc(b1-2)Man", "method_in_brief": "as §1"}, "[12]": {"target": "Gal(b1-3)GlcNAc(b1-2)Man(a1-3)[Gal(b1-3)GlcNAc(b1-2)Man(a1-6)]Man(b1-4)GlcNAc(b1-4)GlcNAc", "method_in_brief": "as §1"}, "[13]": {"target": "Gal(b1-3)GlcNAc(b1-2)Man(a1-3)[Gal(b1-3)GlcNAc(b1-2)Man(a1-6)]Man(b1-4)GlcNAc(b1-4)[Fuc(a1-6)]GlcNAc", "method_in_brief": "as §1"}, "[14]": {"target": "Gal(b1-3)GlcNAc(b1-2)Man(a1-3)[GlcNAc(b1-4)][Gal(b1-3)GlcNAc(b1-2)Man(a1-6)]Man(b1-4)GlcNAc(b1-4)GlcNAc", "method_in_brief": "as §1"}, "[15]": {"target": "Gal(b1-3)GlcNAc(b1-2)[Gal(b1-3)GlcNAc(b1-6)]Man(a1-6)[Gal(b1-3)GlcNAc(b1-2)Man(a1-3)]Man(b1-4)GlcNAc(b1-4)GlcNAc", "method_in_brief": "as §1"}, "[16]": {"target": "Gal(b1-3)GlcNAc(b1-3)Gal(b1-3)GlcNAc", "method_in_brief": "as §1"}, "[17]": {"target": "Gal(b1-3)GlcNAc(b1-3)Gal(b1-4)Glc", "method_in_brief": "as §1"}, "[18]": {"target": "Gal(b1-3)GlcNAc(b1-3)Gal(b1-4)GlcNAc", "method_in_brief": "as §1"}, "[19]": {"target": "Gal(b1-3)GlcNAc(b1-3)Gal(b1-4)GlcNAc(b1-2)Man(a1-3)[Gal(b1-3)GlcNAc(b1-3)Gal(b1-4)GlcNAc(b1-2)Man(a1-6)]Man(b1-4)GlcNAc(b1-4)GlcNAc", "method_in_brief": "as §1"}, "[20]": {"target": "Gal(b1-3)GlcNAc(b1-3)Gal(b1-4)GlcNAc(b1-2)[Gal(b1-3)GlcNAc(b1-3)Gal(b1-4)GlcNAc(b1-6)]Man(a1-6)[Gal(b1-3)GlcNAc(b1-3)Gal(b1-4)GlcNAc(b1-2)Man(a1-3)]Man(b1-4)GlcNAc(b1-4)[Fuc(a1-6)]GlcNAc", "method_in_brief": "as §1"}, "[21]": {"target": "Gal(b1-3)GlcNAc(b1-3)Gal(b1-4)GlcNAc(b1-3)Gal(b1-4)GlcNAc(b1-2)[Gal(b1-3)GlcNAc(b1-3)Gal(b1-4)GlcNAc(b1-3)Gal(b1-4)GlcNAc(b1-6)]Man(a1-6)[Gal(b1-3)GlcNAc(b1-3)Gal(b1-4)GlcNAc(b1-3)Gal(b1-4)GlcNAc(b1-2)Man(a1-3)]Man(b1-4)GlcNAc(b1-4)[Fuc(a1-6)]GlcNAc", "method_in_brief": "as §1"}, "[22]": {"target": "Gal(b1-3)GlcNAc(b1-3)Gal(b1-4)GlcNAc(b1-6)[Gal(b1-3)GlcNAc(b1-3)]Gal(b1-4)Glc", "method_in_brief": "as §1"}, "[23]": {"target": "Gal(b1-3)GlcNAc(b1-3)Gal(b1-4)[Fuc(a1-3)]GlcNAc", "method_in_brief": "as §1"}, "[24]": {"target": "Gal(b1-3)GlcNAc(b1-3)Gal(b1-4)[Fuc(a1-3)]GlcNAc(b1-6)[Gal(b1-3)GlcNAc(b1-3)]Gal(b1-4)Glc", "method_in_brief": "as §1"}, "[25]": {"target": "Gal(b1-3)GlcNAc(b1-3)GalNAc", "method_in_brief": "as §1"}, "[26]": {"target": "Gal(b1-3)GlcNAc(b1-6)Gal(b1-4)GlcNAc", "method_in_brief": "as §1"}},
  "note": "The list shows a part of the results.",
  "data": [
    {"binder": "PVL (Psathyrella velutina), Q309D1_9AGAR (protein) MSVVVISQALPVPTRIPGVADLVGFGNGGVYIIRNSLLIQVVKVINNFGYDAGGWRVEKHVRLLADTTGDNQPDVVGFGENGVWISTNNGNNTFVDPPKMVLANFAYAAGGWRVEKHIRFMADLRKTGRADIVGFGDGGIYISRNNGGGQFAPAQLALNNFGYAQGWRLDRHLRFLADVTGDGLLDVVGFGENQVYIARNSGNGTFQPAQAVVNNFCIGAGGWTISAHPRVVADLTGDRKADILGFGVAGVYTSLNNGNGTFGAVNLVLKDFGVNSGWRVEKHVRCVSSLTNKKVGDIIGFGDAGVYVALNNGNGTFGPVKRVIDNFGYNQGWRVDKHPRFVVDLTGDGCADIVGFGENSVWACMNKGDGTFGPIMKLIDDMTVSKGWTLQKTVRYAANLYL", "values": [
      {"measurement": "glycan array binding signal (z-score)", "setting": "Gal(a1-3)GalNAc", "result": -0.368},
      {"measurement": "glycan array binding signal (z-score)", "setting": "[1]", "result": -0.363},
      {"measurement": "glycan array binding signal (z-score)", "setting": "[2]", "result": -0.373},
      {"measurement": "glycan array binding signal (z-score)", "setting": "Gal(a1-4)Gal(b1-4)Glc", "result": -0.343},
      {"measurement": "glycan array binding signal (z-score)", "setting": "Gal(a1-4)Gal(b1-4)GlcNAc", "result": -0.364},
      {"measurement": "glycan array binding signal (z-score)", "setting": "[3]", "result": -0.362},
      {"measurement": "glycan array binding signal (z-score)", "setting": "[4]", "result": -0.334},
      {"measurement": "glycan array binding signal (z-score)", "setting": "Gal(a1-4)GlcNAc", "result": -0.37},
      {"measurement": "glycan array binding signal (z-score)", "setting": "Gal(a1-6)Glc", "result": -0.349},
      {"measurement": "glycan array binding signal (z-score)", "setting": "Gal(b1-2)Gal", "result": -0.366},
      {"measurement": "glycan array binding signal (z-score)", "setting": "Gal(b1-3)Gal", "result": -0.347},
      {"measurement": "glycan array binding signal (z-score)", "setting": "Gal(b1-3)Gal(b1-4)GlcNAc", "result": -0.377},
      {"measurement": "glycan array binding signal (z-score)", "setting": "Gal(b1-3)GalNAc", "result": -0.367},
      {"measurement": "glycan array binding signal (z-score)", "setting": "[5]", "result": -0.36},
      {"measurement": "glycan array binding signal (z-score)", "setting": "[6]", "result": -0.363},
      {"measurement": "glycan array binding signal (z-score)", "setting": "Gal(b1-3)GalNAc(b1-3)Gal", "result": -0.309},
      {"measurement": "glycan array binding signal (z-score)", "setting": "[7]", "result": -0.351},
      {"measurement": "glycan array binding signal (z-score)", "setting": "[8]", "result": -0.363},
      {"measurement": "glycan array binding signal (z-score)", "setting": "[9]", "result": -0.33},
      {"measurement": "glycan array binding signal (z-score)", "setting": "Gal(b1-3)GlcNAc", "result": -0.338},
      {"measurement": "glycan array binding signal (z-score)", "setting": "[10]", "result": -0.368},
      {"measurement": "glycan array binding signal (z-score)", "setting": "[11]", "result": -0.362},
      {"measurement": "glycan array binding signal (z-score)", "setting": "Gal(b1-3)GlcNAc(b1-2)Man", "result": -0.374},
      {"measurement": "glycan array binding signal (z-score)", "setting": "[12]", "result": -0.274},
      {"measurement": "glycan array binding signal (z-score)", "setting": "[13]", "result": -0.364},
      {"measurement": "glycan array binding signal (z-score)", "setting": "[14]", "result": -0.341},
      {"measurement": "glycan array binding signal (z-score)", "setting": "[15]", "result": -0.349},
      {"measurement": "glycan array binding signal (z-score)", "setting": "[16]", "result": -0.337},
      {"measurement": "glycan array binding signal (z-score)", "setting": "[17]", "result": -0.359},
      {"measurement": "glycan array binding signal (z-score)", "setting": "[18]", "result": -0.364},
      {"measurement": "glycan array binding signal (z-score)", "setting": "[19]", "result": -0.234},
      {"measurement": "glycan array binding signal (z-score)", "setting": "[20]", "result": -0.341},
      {"measurement": "glycan array binding signal (z-score)", "setting": "[21]", "result": -0.091},
      {"measurement": "glycan array binding signal (z-score)", "setting": "[22]", "result": -0.31},
      {"measurement": "glycan array binding signal (z-score)", "setting": "[23]", "result": -0.369},
      {"measurement": "glycan array binding signal (z-score)", "setting": "[24]", "result": -0.367},
      {"measurement": "glycan array binding signal (z-score)", "setting": "[25]", "result": -0.36},
      {"measurement": "glycan array binding signal (z-score)", "setting": "[26]", "result": -0.369}
    ]}
  ]
}
